Data: PubChem BioAssay (Tox21)
“And” between values parts separate entries of the source, which are not always exact repeats. Identical values can stand only once. This list was built around the results that the source calls inconclusive (neither active nor inactive); the mix of calls is not that of the screen. Potencies of inconclusive entries are left out as doubtful fits. A structure can be active in one record and inactive in another. The source made the active and inactive calls. The call rests on the fitted dose curve; in most records, active means well fitted cell-killing curve with a large enough effect in the repeat runs; inconclusive means weak or mixed curves, or effect the other way; inactive means no such curve, though single readings can be large or run the other way.

Experiment: qHTS assay to identify small molecule agonists of the vitamin D receptor (VDR) signaling pathway - cell viability counter screen (AID 743224); further: nearly all actives have a fitted effect of over 50% in size
Details: VDR-bla HEK293T viability, CellTiter-Glo luminescence, 16 h; series mostly up to 62.6 µM
Outline: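 Plated VDR-bla cells (4 h, 37C) received compound, incubated 16 h, then LiveBLAzer substrate 2 h RT; CellTiter-Glo added afterwards, luminescence read at 30 min.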
Potency means the concentration at half of the fitted maximal effect; tags describe the fitted curve by direction and shape.

| SMILES | Potency |
| --- | --- |
| CNC(=O)c1ccccc1Sc1ccc2c(/C=C/c3ccccn3)n[nH]c2c1 | active: 29.8 µM |
| Cc1c(O)cccc1C(=O)N[C@@H](CSc1ccccc1)[C@H](O)CN1C[C@H]2CCCC[C@H]2C[C@H]1C(=O)NC(C)(C)C | active: 15.1 µM and active: 26.6 µM |
| CC[C@H]1CN2CCc3cc(OC)c(OC)cc3[C@@H]2C[C@@H]1C[C@H]1NCCc2cc(OC)c(OC)cc21 | active: 19.6 µM |
| CN(C)CCOC(c1ccccc1)c1ccccc1 (tested in a mixture with another compound) | inconclusive [cytotoxic, single point] |
